According to PubChem BioAssay (NCI):
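Tested at 5 concentrations; 48 h exposure; 96-well plates; endpoints linearly interpolated, else capped at highest concentration. Abbreviation: GI50, concentration required for 50% inhibition of growth.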 The source holds more than one record for some entries. This list holds those alone. The source may hold further records. For part of these data: A record mostly stands for its own series of concentrations, not given here; a value can be the end of its range. For part of these data: Values given together are repeats (runs, samples, wells, individuals or studies). What stands in brackets tells the records apart. The letters are not those of the source and start again with each entry.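 TGI: total growth inhibition.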

Tests used:
Test in all cases: NCI anticancer screen, dose series, 48 h
HOP-92 NSCLC = tested on: HOP-92 NSCLC
COLO 205 colon = tested on: COLO 205 colon
NCI-H226 lung = tested on: NCI-H226 lung
SF-539 CNS = tested on: SF-539 CNS
A549 NSCLC = tested on: A549 NSCLC
CAKI-1 renal = tested on: CAKI-1 renal
HCT-116 colon = tested on: HCT-116 colon
HL-60(TB) leukemia = tested on: HL-60(TB) leukemia
K-562 leukemia = tested on: K-562 leukemia
KM12 colon = tested on: KM12 colon
LOX IMVI melanoma = tested on: LOX IMVI melanoma
M14 melanoma = tested on: M14 melanoma
MOLT-4 leukemia = tested on: MOLT-4 leukemia
NCI/ADR-RES ovarian = tested on: NCI/ADR-RES ovarian
OVCAR-8 ovarian = tested on: OVCAR-8 ovarian
SK-MEL-28 melanoma = tested on: SK-MEL-28 melanoma
SN12C renal = tested on: SN12C renal
T-47D breast = tested on: T-47D breast
TK-10 renal = tested on: TK-10 renal
U251 CNS = tested on: U251 CNS
UACC-62 melanoma = tested on: UACC-62 melanoma
UO-31 renal = tested on: UO-31 renal
SF-295 CNS = tested on: SF-295 CNS

CC(N)(Cc1c[nH]c2cccc(F)c12)C(=O)O (stereo not given)
GI50 (HOP-92 NSCLC): 35.8 µM and > 1 mM

O=C1CC(c2cccc(F)c2)Nc2cc3c(cc21)OCO3 (stereo not given)
TGI (COLO 205 colon): 195 nM and > 100 µM
TGI (NCI-H226 lung): 200 nM and > 100 µM
TGI (SF-539 CNS): 121 nM and > 100 µM

C=C/C=C/[C@@H](O)CC(=C)C[C@H]1OC2[C@H](C)[C@@H](OC(=O)C[C@H]3C[C@H](OC(C)=O)C[C@@]4(C[C@@](C)(O)C[C@H](CC(=C)[C@@H](C)[C@H](OC(C)=O)[C@H](C)C(=O)C[C@@H]5C[C@H](OC)CC6(C[C@@H](O)C[C@H](/C=C\CCC[C@H]7O[C@](O)(C=C[C@H]7C)[C@H]2O)O6)O5)O4)O3)[C@@H]1O
GI50 (A549 NSCLC): 0.155 nM [1 test] and 2.5 nM [mean of 2 tests]
TGI (A549 NSCLC): 0.833 nM [1 test] and > 25 µM [mean of 2 tests]
TGI (CAKI-1 renal): 68.4 nM [1 test] and > 15.7 µM [mean of 2 tests]
GI50 (HCT-116 colon): 0.0512 nM [1 test] and 2.5 nM [mean of 2 tests]
GI50 (HL-60(TB) leukemia): 0.016 nM [1 test] and 2.5 nM [mean of 2 tests]
TGI (HL-60(TB) leukemia): 1.94 nM [1 test] and 5.88 µM [mean of 2 tests]
GI50 (K-562 leukemia): 0.0737 nM [1 test] and 2.5 nM [mean of 2 tests]
TGI (KM12 colon): 3.85 nM and > 25 µM
GI50 (LOX IMVI melanoma): 0.0985 nM [1 test] and 2.5 nM [mean of 2 tests]
TGI (LOX IMVI melanoma): 23.6 nM [1 test] and > 11.1 µM [mean of 2 tests]
GI50 (M14 melanoma): 0.195 nM [1 test] and 2.5 nM [mean of 2 tests]
GI50 (MOLT-4 leukemia): 0.045 nM [1 test] and 2.5 nM [mean of 2 tests]
TGI (MOLT-4 leukemia): 2.19 nM [1 test] and > 25 µM [mean of 2 tests]
TGI (NCI-H226 lung): 34.3 nM [1 test] and 8.88 µM [mean of 2 tests]
GI50 (NCI/ADR-RES ovarian): 42.4 nM [1 test] and 4.1 nM [mean of 2 tests]
TGI (OVCAR-8 ovarian): 9.81 nM [1 test] and > 25 µM [mean of 2 tests]
GI50 (SK-MEL-28 melanoma): 0.238 nM and 2.5 nM
TGI (SN12C renal): 7.02 nM [1 test] and > 9.66 µM [mean of 2 tests]
GI50 (T-47D breast): 0.524 nM and 13.3 µM
TGI (TK-10 renal): 8.3 nM [1 test] and > 23.9 µM [mean of 2 tests]
GI50 (U251 CNS): 0.12 nM [1 test] and 2.5 nM [mean of 2 tests]
GI50 (UACC-62 melanoma): 0.0273 nM [1 test] and 2.5 nM [mean of 2 tests]
TGI (UACC-62 melanoma): 0.318 nM [1 test] and > 25 µM [mean of 2 tests]
GI50 (UO-31 renal): 26.3 nM [1 test] and 2.5 nM [mean of 2 tests]

CC(C)(C)C1CCC2c3c([nH]c4ccccc34)C3C(=O)N(c4ccc(Cl)cc4)C(=O)C3C2C1 (stereo not given)
GI50 (SF-295 CNS): > 100 µM [sample A, 1 test] and 36.1 nM [sample B, 1 test]
TGI (SF-295 CNS): > 100 µM [sample A, 1 test] and 1.07 µM [sample B, 1 test]
